Laboratory results taken from the supplement of paper PMC8728848.
This is one part of the list.

Legend:
Test in all cases: glycan array binding signal (z-score within array); higher = stronger binding
Details in all cases: glycan notation: IUPAC condensed, linker removed
[1] = molecular target: Fuc(a1-2)Gal
Method in brief: (§1)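 The binding signal is a Z-score computed within each array. Data were drawn from 3228 arrays in the Consortium for Functional Glycomics database, restricted to those with a known protein sequence. Scores were averaged over arrays of the same protein sequence at different concentrations or buffers, and over linkers, and negative values can be taken as non-binding.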

[2] = molecular target: Fuc(a1-2)Gal(b1-3)GalNAc
Method in brief: as §1

[3] = molecular target: Fuc(a1-2)Gal(b1-3)GalNAc(a1-3)[Fuc(a1-2)]Gal(b1-4)Glc
Method in brief: as §1

[4] = molecular target: Fuc(a1-2)Gal(b1-3)GalNAc(a1-3)[Fuc(a1-2)]Gal(b1-4)GlcNAc
Method in brief: as §1

[5] = molecular target: Fuc(a1-2)Gal(b1-3)GalNAc(b1-3)Gal
Method in brief: as §1

[6] = molecular target: Fuc(a1-2)Gal(b1-3)GalNAc(b1-3)Gal(a1-4)Gal(b1-4)Glc
Method in brief: as §1

[7] = molecular target: Fuc(a1-2)Gal(b1-3)GalNAc(b1-4)[Neu5Ac(a2-3)]Gal(b1-4)Glc
Method in brief: as §1

[8] = molecular target: Fuc(a1-2)Gal(b1-3)GlcNAc
Method in brief: as §1

[9] = molecular target: Fuc(a1-2)Gal(b1-3)GlcNAc(b1-2)Man(a1-3)[Fuc(a1-2)Gal(b1-3)GlcNAc(b1-2)Man(a1-6)]Man(b1-4)GlcNAc(b1-4)GlcNAc
Method in brief: as §1

[10] = molecular target: Fuc(a1-2)Gal(b1-3)GlcNAc(b1-2)Man(a1-3)[Fuc(a1-2)Gal(b1-3)GlcNAc(b1-2)Man(a1-6)]Man(b1-4)GlcNAc(b1-4)[Fuc(a1-6)]GlcNAc
Method in brief: as §1

[11] = molecular target: Fuc(a1-2)Gal(b1-3)GlcNAc(b1-3)Gal(b1-4)Glc
Method in brief: as §1

[12] = molecular target: Fuc(a1-2)Gal(b1-3)GlcNAc(b1-3)GalNAc
Method in brief: as §1

[13] = molecular target: Fuc(a1-2)Gal(b1-3)GlcNAc(b1-3)[Fuc(a1-2)Gal(b1-3)GlcNAc(b1-6)]GalNAc
Method in brief: as §1

[14] = molecular target: Fuc(a1-2)Gal(b1-3)GlcNAc(b1-3)[Gal(b1-4)GlcNAc(b1-6)]Gal(b1-4)Glc
Method in brief: as §1

[15] = molecular target: Fuc(a1-2)Gal(b1-3)GlcNAc(b1-3)[Neu5Ac(a2-6)Gal(b1-4)GlcNAc(b1-6)]Gal(b1-4)Glc
Method in brief: as §1

[16] = molecular target: Fuc(a1-2)Gal(b1-3)GlcNAc6S
Method in brief: as §1

[17] = molecular target: Fuc(a1-2)Gal(b1-3)[Fuc(a1-4)]GlcNAc
Method in brief: as §1

[18] = molecular target: Fuc(a1-2)Gal(b1-3)[Fuc(a1-4)]GlcNAc(b1-2)Man(a1-3)[Fuc(a1-2)Gal(b1-3)[Fuc(a1-4)]GlcNAc(b1-2)Man(a1-3)]Man(b1-4)GlcNAc(b1-4)GlcNAc
Method in brief: as §1

[19] = molecular target: Fuc(a1-2)Gal(b1-3)[Fuc(a1-4)]GlcNAc(b1-2)Man(a1-3)[Fuc(a1-2)Gal(b1-3)[Fuc(a1-4)]GlcNAc(b1-2)Man(a1-6)]Man(b1-4)GlcNAc(b1-4)[Fuc(a1-6)]GlcNAc(b1-4)[Fuc(a1-6)]GlcNAc
Method in brief: as §1

[20] = molecular target: Fuc(a1-2)Gal(b1-3)[Fuc(a1-4)]GlcNAc(b1-3)[Fuc(a1-3)[Gal(b1-4)]GlcNAc(b1-6)]Gal(b1-4)Glc
Method in brief: as §1

[21] = molecular target: Fuc(a1-2)Gal(b1-3)[Fuc(a1-4)]GlcNAc(b1-3)[Gal(b1-4)GlcNAc(b1-6)]Gal(b1-4)Glc
Method in brief: as §1

[22] = molecular target: Fuc(a1-2)Gal(b1-4)Glc
Method in brief: as §1

[23] = molecular target: Fuc(a1-2)Gal(b1-4)Glc6S
Method in brief: as §1

[24] = molecular target: Fuc(a1-2)Gal(b1-4)GlcNAc
Method in brief: as §1

[25] = molecular target: Fuc(a1-2)Gal(b1-4)GlcNAc(b1-2)Man
Method in brief: as §1

[26] = molecular target: Fuc(a1-2)Gal(b1-4)GlcNAc(b1-2)Man(a1-3)[Fuc(a1-2)Gal(b1-4)GlcNAc(b1-2)Man(a1-6)]Man(b1-4)GlcNAc(b1-4)GlcNAc
Method in brief: as §1

[27] = molecular target: Fuc(a1-2)Gal(b1-4)GlcNAc(b1-2)Man(a1-3)[Fuc(a1-2)Gal(b1-4)GlcNAc(b1-2)Man(a1-6)]Man(b1-4)GlcNAc(b1-4)[Fuc(a1-6)]GlcNAc
Method in brief: as §1

[28] = molecular target: Fuc(a1-2)Gal(b1-4)GlcNAc(b1-2)[Fuc(a1-2)Gal(b1-4)GlcNAc(b1-4)]Man(a1-3)[Fuc(a1-2)Gal(b1-4)GlcNAc(b1-2)Man(a1-6)]Man(b1-4)GlcNAc(b1-4)GlcNAc
Method in brief: as §1

[29] = molecular target: Fuc(a1-2)Gal(b1-4)GlcNAc(b1-3)Gal(b1-4)GlcNAc
Method in brief: as §1

[30] = molecular target: Fuc(a1-2)Gal(b1-4)GlcNAc(b1-3)Gal(b1-4)GlcNAc(b1-2)Man(a1-3)[Fuc(a1-2)Gal(b1-4)GlcNAc(b1-3)Gal(b1-4)GlcNAc(b1-2)Man(a1-6)]Man(b1-4)GlcNAc(b1-4)GlcNAc
Method in brief: as §1

[31] = molecular target: Fuc(a1-2)Gal(b1-4)GlcNAc(b1-3)Gal(b1-4)GlcNAc(b1-3)Gal(b1-4)GlcNAc
Method in brief: as §1

[32] = molecular target: Fuc(a1-2)Gal(b1-4)GlcNAc(b1-3)GalNAc
Method in brief: as §1

[33] = molecular target: Fuc(a1-2)Gal(b1-4)GlcNAc(b1-3)[Fuc(a1-2)Gal(b1-4)GlcNAc(b1-6)]GalNAc
Method in brief: as §1

[34] = molecular target: Fuc(a1-2)Gal(b1-4)GlcNAc(b1-3)[Fuc(a1-3)[Gal(b1-4)]GlcNAc(b1-6)]Gal(b1-4)Glc
Method in brief: as §1

[35] = molecular target: Fuc(a1-2)Gal(b1-4)GlcNAc(b1-6)GalNAc
Method in brief: as §1

[36] = molecular target: Fuc(a1-2)Gal(b1-4)GlcNAc6S
Method in brief: as §1

[37] = molecular target: Fuc(a1-2)Gal(b1-4)[Fuc(a1-3)]GlcNAc
Method in brief: as §1

[38] = molecular target: Fuc(a1-2)Gal(b1-4)[Fuc(a1-3)]GlcNAc(b1-2)Man(a1-3)[Fuc(a1-2)Gal(b1-4)[Fuc(a1-3)]GlcNAc(b1-2)Man(a1-6)]Man(b1-4)GlcNAc(b1-4)[Fuc(a1-6)]GlcNAc
Method in brief: as §1

[39] = molecular target: Fuc(a1-2)Gal(b1-4)[Fuc(a1-3)]GlcNAc(b1-2)[Fuc(a1-2)Gal(b1-4)[Fuc(a1-3)]GlcNAc(b1-4)]Man(a1-3)[Fuc(a1-2)Gal(b1-4)[Fuc(a1-3)]GlcNAc(b1-2)Man(a1-6)]Man(b1-4)GlcNAc(b1-4)GlcNAc
Method in brief: as §1

[40] = molecular target: Fuc(a1-2)Gal(b1-4)[Fuc(a1-3)]GlcNAc(b1-3)Gal(b1-4)[Fuc(a1-3)]GlcNAc
Method in brief: as §1

[41] = molecular target: Fuc(a1-2)Gal(b1-4)[Fuc(a1-3)]GlcNAc(b1-3)Gal(b1-4)[Fuc(a1-3)]GlcNAc(b1-3)Gal(b1-4)[Fuc(a1-3)]GlcNAc
Method in brief: as §1

[42] = molecular target: Fuc(a1-2)Gal(b1-4)[Fuc(a1-3)]GlcNAc(b1-3)GalNAc
Method in brief: as §1

[43] = molecular target: Fuc(a1-2)Gal(b1-4)[Fuc(a1-3)]GlcNAc(b1-3)[Neu5Ac(a2-6)Gal(b1-4)GlcNAc(b1-6)]Gal(b1-4)Glc
Method in brief: as §1

[44] = molecular target: Fuc(a1-2)Gal3S(b1-4)GlcNAc
Method in brief: as §1

[45] = molecular target: Fuc(a1-2)Gal6S(b1-3)GlcNAc
Method in brief: as §1

B1: Si Bti9 1b-HA (Solanum lycopersicum) (protein)
chain: MFESRPRSVLSLGVFVILVYLSSVPLPVNSQCNRGCDLALASFYVWRGSNLTLISEMFSTSIADIVSYNNRDNIPNQDSVIAGTRINIPFRCDCLNDGEVLGHAFPYRVKSGDTYDLVARNYSDLTTAQWMMKFNSYPENNIPNTVNLSVVVNCSCGNSDVSKDFGLFVTYPVRAEDNLTSVASAANVSEDIIRRYNPAAVSILDIGQGIIYIPGRDRNGNFPPLPTSTDGLSGGAKAPLFFNPAFLYKVVELKLAGRSRTSGYPYDVPDYAGYPYDVPDYALEVLFQ
[1]
  glycan array binding signal (z-score): -0.051
[2]
  glycan array binding signal (z-score): -0.072
[3]
  glycan array binding signal (z-score): 0.034
[4]
  glycan array binding signal (z-score): 0.182
[5]
  glycan array binding signal (z-score): 0.238
[6]
  glycan array binding signal (z-score): 0.005
[7]
  glycan array binding signal (z-score): -0.408
[8]
  glycan array binding signal (z-score): -0.5
[9]
  glycan array binding signal (z-score): 0.652
[10]
  glycan array binding signal (z-score): 0.795
[11]
  glycan array binding signal (z-score): -0.131
[12]
  glycan array binding signal (z-score): -0.385
[13]
  glycan array binding signal (z-score): -0.159
[14]
  glycan array binding signal (z-score): -0.108
[15]
  glycan array binding signal (z-score): -0.237
[16]
  glycan array binding signal (z-score): 0.453
[17]
  glycan array binding signal (z-score): -0.473
[18]
  glycan array binding signal (z-score): 0.926
[19]
  glycan array binding signal (z-score): -0.022
[20]
  glycan array binding signal (z-score): -0.473
[21]
  glycan array binding signal (z-score): -0.326
[22]
  glycan array binding signal (z-score): -0.268
[23]
  glycan array binding signal (z-score): -0.246
[24]
  glycan array binding signal (z-score): -0.204
[25]
  glycan array binding signal (z-score): 0.248
[26]
  glycan array binding signal (z-score): 0.084
[27]
  glycan array binding signal (z-score): 1.61
[28]
  glycan array binding signal (z-score): 0.108
[29]
  glycan array binding signal (z-score): -0.424
[30]
  glycan array binding signal (z-score): -0.121
[31]
  glycan array binding signal (z-score): -0.455
[32]
  glycan array binding signal (z-score): -0.344
[33]
  glycan array binding signal (z-score): -0.037
[34]
  glycan array binding signal (z-score): -0.494
[35]
  glycan array binding signal (z-score): 0.3
[36]
  glycan array binding signal (z-score): -0.271
[37]
  glycan array binding signal (z-score): -0.424
[38]
  glycan array binding signal (z-score): 0.054
[39]
  glycan array binding signal (z-score): -0.068
[40]
  glycan array binding signal (z-score): -0.28
[41]
  glycan array binding signal (z-score): -0.112
[42]
  glycan array binding signal (z-score): 0.141
[43]
  glycan array binding signal (z-score): -0.201
[44]
  glycan array binding signal (z-score): -0.035
[45]
  glycan array binding signal (z-score): -0.239
